Source: paper PMC4336329 (PLoS ONE, 2015)
The whole screen tested about 310,000 compounds, of which about 14,000 (4.5%) showed an effect of 50% or more. Effects have a minus sign here. The list shows a part of the results.

molecular target: human ether-à-go-go-related gene (hERG) potassium channel (human, UniProt Q12809); experiment: primary screen, population patch clamp on CHO cells stably expressing hERG
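Also: peak tail current of the secondary pulse compared with the same well before compound.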

human ether-à-go-go-related gene (hERG) potassium channel, sequence (Q12809 whole entry, looked up): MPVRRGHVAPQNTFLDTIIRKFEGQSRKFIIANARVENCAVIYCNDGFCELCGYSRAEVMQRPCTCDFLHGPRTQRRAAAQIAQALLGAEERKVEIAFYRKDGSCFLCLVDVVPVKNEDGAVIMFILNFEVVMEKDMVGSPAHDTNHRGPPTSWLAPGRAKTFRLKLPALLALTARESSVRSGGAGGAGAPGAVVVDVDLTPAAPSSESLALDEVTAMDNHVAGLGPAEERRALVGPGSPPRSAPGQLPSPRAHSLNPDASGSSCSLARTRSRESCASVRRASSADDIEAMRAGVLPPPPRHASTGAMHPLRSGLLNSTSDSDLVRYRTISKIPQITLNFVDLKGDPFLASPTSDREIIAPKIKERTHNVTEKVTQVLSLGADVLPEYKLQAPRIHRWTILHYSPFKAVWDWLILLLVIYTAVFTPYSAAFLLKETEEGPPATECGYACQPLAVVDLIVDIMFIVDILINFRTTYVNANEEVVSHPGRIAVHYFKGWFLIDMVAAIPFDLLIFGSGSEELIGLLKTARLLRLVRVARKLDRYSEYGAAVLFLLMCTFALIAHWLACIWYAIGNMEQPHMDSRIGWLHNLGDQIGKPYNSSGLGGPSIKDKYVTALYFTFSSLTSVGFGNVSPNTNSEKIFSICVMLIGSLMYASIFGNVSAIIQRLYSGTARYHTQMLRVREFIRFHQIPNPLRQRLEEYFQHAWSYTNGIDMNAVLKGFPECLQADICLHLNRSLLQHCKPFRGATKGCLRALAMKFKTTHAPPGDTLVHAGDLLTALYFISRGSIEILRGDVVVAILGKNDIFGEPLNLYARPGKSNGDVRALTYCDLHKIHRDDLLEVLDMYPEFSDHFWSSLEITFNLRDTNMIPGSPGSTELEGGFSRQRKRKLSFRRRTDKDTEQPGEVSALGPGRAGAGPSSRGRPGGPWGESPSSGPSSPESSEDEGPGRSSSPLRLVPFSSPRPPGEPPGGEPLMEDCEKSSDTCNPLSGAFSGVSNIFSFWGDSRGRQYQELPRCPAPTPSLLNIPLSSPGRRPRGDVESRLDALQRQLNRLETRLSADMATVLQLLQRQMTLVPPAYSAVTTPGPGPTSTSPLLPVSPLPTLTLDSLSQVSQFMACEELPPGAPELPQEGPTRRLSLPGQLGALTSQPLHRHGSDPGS

Row | SMILES | hERG current change (%, negative = inhibition) at 10uM
1 | CCO.NCCc1c[nH]c2ccc(C(N)=O)cc12.O=C([O-])/C=C\C(=O)[O-] | 11.6%
2 | O=C(NCc1ccc(Cl)cc1)N1CCOCC1 | 16.2%
3 | O=C(NCCS(=O)(=O)N1CCN(c2ccc(F)cc2)CC1)C12CC3CC(CC(C3)C1)C2 | -10.5%
4 | CC1=C([N+](=O)[O-])C(c2ccccc2)C2=C(N1)c1ccccc1C2=O (stereo not shown) | 3.48%
5 | O=C(Nc1ccc(F)cc1)c1ccc(-n2cncn2)c([N+](=O)[O-])c1 | -18.9%
6 | O=C(CCC(=O)N1CCSc2ccccc21)NCCc1ccccc1 | -30.5%
7 | CCN(CC)C(=O)CSC1=Nc2ccccc2C2=NC(Cc3c[nH]c4ccccc34)C(=O)N12 (stereo not shown) | -16.2%
8 | Cc1c(C(=O)NC2CCCc3ccccc32)cccc1[N+](=O)[O-] (stereo not shown) | 12.9%
9 | CCNC(=S)Nc1cccc(Cl)c1C | -12.9%
10 | COc1ccc(/C=C/C(=O)OCC(=O)Nc2ccc(Cl)cc2F)cc1S(=O)(=O)N1CCOCC1 | 1.6%
11 | O=C(/C=C/c1ccccc1)NCCc1cnc[nH]1 | -5.14%
12 | Cc1ccc(C2NNC(=O)C2NC(=O)c2ccccc2)cc1 (stereo not shown) | 19.1%
13 | COc1cc(C(=O)Nc2ccc(Nc3ccccc3)cc2)cc(OC)c1OC | 1.07%
14 | O=C(O)c1cc(S(=O)(=O)N2CCCCCC2)ccc1Cl | 20%
15 | CCOc1ccccc1NC(=S)N1CCC(NC(=O)C(C)(C)C)CC1 | 25.6%
16 | O=c1c2ccccc2nc(Cc2ccccc2)n1-c1cccc(O)c1 | -31.5%
17 | O=c1[nH]c(C2CCCN(S(=O)(=O)c3ccccc3)C2)nc2c1nnn2Cc1ccccc1F (stereo not shown) | -3.27%
18 | CCCC(=O)NC(c1ccccc1Cl)c1c(O)ccc2ccccc12 (stereo not shown) | 10.8%
19 | O=C1CN(C(=O)/C=C/c2ccco2)c2ccccc2N1 | -28.6%
20 | Cc1[nH]c2ccc(OC(F)(F)F)cc2c1CCNCc1cccc([N+](=O)[O-])c1 | -25.4%
21 | Cc1ccn(-c2n[nH]c(C)c2[N+](=O)[O-])n1 | 15.6%
22 | O=C(c1ccc(Cl)cc1)c1c[nH]c(C(=O)NNc2ccccc2)c1 | -4.74%

Row | SMILES | hERG current change (%, negative = inhibition) at 10uM
23 | CC(C)N(C(=O)C1CC(=O)OC12CCCCC2)C(C)C (stereo not shown) | -14.6%
24 | CCN1CCN(c2ncnc3scc(-c4ccc(OC)cc4)c23)CC1 | -54.6%
25 | CCOc1ccc(N2CC(C(=O)Nc3nnc(CC)s3)CC2=O)cc1 (stereo not shown) | -53.6%
26 | CN(C)Cc1c(C(=O)N/N=C/c2ccco2)nnn1-c1nonc1N | -18.2%
27 | CCCN(CCC)S(=O)(=O)c1ccc(NS(=O)(=O)c2ccc(F)cc2)cc1 | 5.18%
28 | Cc1ccsc1/C=N/NC(=O)CNC(=O)c1c(F)cccc1Cl | 21.2%
29 | COc1ccc(C2=NNC(c3cccs3)=Nc3ccc(OC)cc32)cc1 | 6.92%
30 | COCCN(C(=O)C1CC(=O)N(Cc2ccccc2)C1)c1nc(-c2ccc([N+](=O)[O-])cc2)cs1 (stereo not shown) | -29.7%
31 | Cc1cc(Nc2cccc(Cl)c2C)n2ncnc2n1 | 0.621%
32 | CN(C)c1ccc(-c2nnc(-c3cccnc3)o2)cc1 | 7.04%
33 | Cc1cc(NS(=O)(=O)c2ccc(NC(=O)COc3c(C)cc(Br)cc3C)cc2)no1 | 12.5%
34 | COc1ccc(CN(Cc2ccco2)S(=O)(=O)c2ccc(S(=O)(=O)N3CCCC3)cc2)cc1 | 0.256%
35 | O=S(=O)(Nc1ccc(F)cc1)c1cccc2nsnc12 | 3.96%
36 | CN(C)C(CNC(=O)c1ccc(-c2ccccc2)cc1)c1ccccc1 (stereo not shown) | -22.5%
37 | O=C(c1ccoc1)N1CCCC(N2CCN(c3cccc(C(F)(F)F)c3)CC2)C1 (stereo not shown) | -55.5%
38 | CC(=O)OCc1cc(-c2nn(C)c(=O)c3ccccc23)ccc1C | 2.25%
39 | CCOc1ccccc1Oc1cn[nH]c1-c1ccc(OCC(=O)NN)cc1O | 1.6%
40 | O=[N+]([O-])c1ccc(Cl)c(CN2CCC(O)CC2)c1 | 2.93%
41 | COc1ccc(OC)c(C(C)NC=O)c1 (stereo not shown) | 11.1%
42 | COc1cccc(/C=C/c2ccc3cccc(O)c3n2)c1 | 14.8%
43 | Cc1ccc(CNC(=O)c2cc(COc3c(F)cccc3F)on2)s1 | 11.6%
44 | O=c1cc(Cl)c2ccccc2n1-c1ccccc1 | 7.11%

Row | SMILES | hERG current change (%, negative = inhibition) at 10uM
45 | COc1ccc(CN(C)c2nc(-c3cccnc3)nc3ccccc23)cc1OC | 6.06%
46 | COc1ccc(-n2nc(C(=O)NCC(=O)N3CCCCC3)c3ccccc3c2=O)c(OC)c1 | 15.4%
47 | CCOC(=O)c1c(-c2cccs2)csc1N | 10.7%
48 | CCCNC(=O)c1cc(-c2ccccc2)c(N2CCCCC2)s1 | 14.2%
49 | CC(=O)NN1CCc2cc3ccc(C)cc3nc21 | 8.1%
50 | COC(=O)C(=C/C=C/c1cccnc1)C(=O)OC | 28.7%
51 | COC(=O)c1ccc(NC(=O)c2ccc(CN3CCOCC3)cc2)cc1 | -8.18%
52 | COc1cccc(N2CCN(c3ccc([N+](=O)[O-])cn3)CC2)c1 | 13.8%
53 | Cl.Clc1cccc(Cl)c1CNCCCSc1ncccn1 | -7.64%
54 | CC(=O)OC1(Cc2ccccc2)CN2CCC1c1ccccc12.Cl (stereo not shown) | -12.7%
55 | Cc1ccc2c(c1)N(CCC(=O)NCCCN1CCCC1)C(=O)CO2 | 12.7%
56 | CCN1CCN(C(c2ccc(OC)cc2)C(O)C(=O)c2c[nH]c3ccccc23)CC1 (stereo not shown) | -69%
57 | COc1cccc(N2CCN(C3OC(=O)c4ccccc43)CC2)c1 (stereo not shown) | -0.546%
58 | COc1ccc(OC)c(/C=C/c2ccc3cccc(O)c3n2)c1 | 19.2%
59 | O=c1cccc2n1C[C@@H]1C[C@@H]2CN(CC(O)c2ccc([N+](=O)[O-])cc2)C1 (stereo partly shown) | -49%
60 | COc1ccc(S(=O)(=O)N2CCC(C(=O)NCC3CCCCC3)CC2)cc1 | -8.15%
61 | O=C(Nc1cccc(Cl)c1)C1CC1c1ccccc1 (stereo not shown) | -7.52%
62 | COc1ccc(C2CC(=O)C=C(O)C2)cc1 (stereo not shown) | -27.8%
63 | O=C(O)C(O)C(O)C(=O)O.O=C(c1ccc(F)cc1)C1CCN(CCn2c(=O)[nH]c3ccccc3c2=O)CC1 | -51.8%
64 | COc1ccc(C(=O)CN2C(=O)C(C)(C)Oc3ccc(C(=O)N4CCCCCC4)cc32)cc1 | -42.8%
65 | CCN(CC)S(=O)(=O)c1ccc(Cl)c(C(=O)OCC(=O)c2c(N)n(C)c(=O)n(C)c2=O)c1 | -16.5%
66 | COc1ccc(OC)c(C2C(C(C)=O)=C(O)C(=O)N2c2ccc(F)cc2)c1 (stereo not shown) | 13.5%

Row | SMILES | hERG current change (%, negative = inhibition) at 10uM
67 | O=C(O)CSc1nc2sc3c(c2c(=O)n1-c1ccccc1)CCC3 | 22.3%
68 | CC(c1n[nH]c(=S)n1-c1ccc(Cl)cc1)N(C)C (stereo not shown) | 15.4%
69 | c1ccc(-n2c3ccccc3c3ccccc32)cc1 | 22.5%
70 | CN(Cc1ccccc1)C(=O)Cn1c(=O)oc2cc(S(=O)(=O)N3CCCC3)ccc21 | -8.36%
71 | Cc1onc(-c2c(F)cccc2Cl)c1C(=O)N1CCOC12CCCCC2 | -19.4%
72 | COc1cc2c(cc1OC)-c1cc(Nc3ccccc3Br)nc(=O)n1CC2 | 5.2%
73 | Cc1ccc(S(=O)(=O)N2CCCC2C(=O)OCC(=O)Nc2ccc3c(c2)OCO3)cc1 (stereo not shown) | -1.81%
74 | O=C(C1CCCN1C(=O)c1cccs1)N1CCN(S(=O)(=O)c2ccc(F)cc2)CC1 (stereo not shown) | 1.18%
75 | CCC(C)c1ccccc1NC(=O)C(C)OC(=O)c1ccco1 (stereo not shown) | -15.9%
76 | Cc1[nH]c2ccccc2c1/C=C(\C#N)C(=O)NCc1ccccc1 | 10.9%
77 | FC(F)(F)c1cccc(Sc2cc(C(F)(F)F)nc(-c3ccccn3)n2)c1 | -15.4%
78 | CNc1cc(=O)n(C)c(=O)n1-c1ccccc1 | 6.72%
79 | CCOC(=O)c1cc(-c2ccc(F)cc2)n(CCC(=O)NC2CCN(Cc3ccccc3)CC2)c1C | -64.2%
80 | CCc1ccc2c(c1)C(NC(C)=O)C(=O)N2CC (stereo not shown) | 11.3%
81 | COCCn1ccc2c(OCC(=O)NCCc3ccc(OC)c(OC)c3)cccc2c1=O | -23%
82 | CCCN(CC(=O)Nc1ccccc1OC)C(=O)c1cccc(S(=O)(=O)NCc2ccccc2)c1 | -30.9%
83 | CN1CCC(N(C)C(=O)c2cc(-c3ccccc3Cl)nc3ccccc23)CC1.Cl | -84.3%
84 | Nc1nc2nccc(-c3cccnc3)n2n1 | 29.6%
85 | COc1cc(OC)cc(C(=O)NC(C(=O)NCc2ccccn2)C(C)C)c1 (stereo not shown) | 9.36%
86 | CCCCNC(=O)N1CCOCCOCCN(C(=O)NCCCC)CCOCCOCC1 | -7.73%
87 | CC(=O)c1cc(-c2ccc(F)cc2)n(CCC(=O)Nc2cccc(C)n2)c1C | 19.2%
88 | COc1cc(C(=O)ONC(=O)c2ccc(OC(F)F)cc2)cc(OC)c1OC | 22.9%
